PubChem BioAssay AID463173 (ICCB-Longwood Screening Facility, Harvard Medical School, 2010)
Out of some 52,000 compounds screened, about 4,300 (8.3%) were called active. No stated cut-off is given here; in the data, active means survival mostly below about 52% (no sharp cut-off); inactive means mostly above about 56%. This is one part of the list.

tested on: DeltatarO mutant; test: S. aureus survival, RN4220 and DeltatarO strains – OD600, teichoic acid synthesis inhibitors, primary screen (AID 463173); settings: S. aureus RN4220 wild type/DeltatarO growth, OD600, 18 h, hits give low values, screened at 18.75 µg/mL (by protocol)

Question: How did the survival turn out when Cc1cccc(Cn2cc3c(=O)n(CC(=O)Nc4c(C)cccc4C)nc-3c3cc(F)ccc32)c1 was run?
Answer: inactive: 79%

Question: Cc1cccc2c1-c1sc(C(=O)N3CCN(c4ccccc4)CC3)cc1CO2 was tested. Which survival did it give?
Answer: inactive: 65%

Question: CCCCNS(=O)(=O)c1ccc2nc(-c3cccnc3)cc(C(=O)NCCCOC(C)C)c2c1 was tested. Which survival did it give?
Answer: inactive: 75%

Question: How did the survival turn out when Cc1ccc2nc(NCc3ccccc3)c3nnnn3c2c1 was run?
Answer: inactive: 134%

Question: CCOc1cccc(Nc2nn(-c3ccc(OC(F)(F)F)cc3)nc2C(C)=O)c1 was tested. Which survival did it give?
Answer: inactive: 90%

Question: With CCOC(=O)c1cnc2c(C)c(Cl)ccc2c1NCCc1ccc(OC)c(OC)c1 as the compound, how does the survival read?
Answer: active: 17%

Question: For CCOc1ccccc1CNC(=O)Cc1ccc(NC(=O)N2CCCCc3ccccc32)cc1, which survival is on record?
Answer: inactive: 120%

Question: COc1ccc(Nc2nc(-c3cccc(Cl)c3)c3c(n2)-c2ccccc2OC3)cc1 was tested. Which survival did it give?
Answer: inactive: 62%

Question: For O=C(OCc1ccccc1)N1CCOCCN(C(=O)OCc2ccccc2)CCOCC1, which survival is on record?
Answer: inactive: 75%

Question: Which survival does the source give for CCOc1ccc(NC(=O)CSc2nc3ccsc3c(=O)n2C(C)CC)cc1 (stereo unspecified) here?
Answer: inactive: 94%

Question: CCOc1ccc(CCNC(=O)CCc2c(C)nc3c(c(C)nn3-c3ccc(C)c(C)c3)c2C)cc1 was tested. Which survival did it give?
Answer: inactive: 60%

Question: How did the survival turn out when COc1cc(-c2nc(S(=O)(=O)c3ccc(Br)cc3)c(N3CCOCC3)o2)cc(OC)c1OC was run?
Answer: inactive: 84%

Question: How did the survival turn out when COc1ccc(-c2noc(N(c3ccc(F)c(Cl)c3)c3nc(-c4ccc(OC)c(OC)c4)no3)n2)cc1OC was run?
Answer: inactive: 68%

Question: COc1ccc(Br)cc1C(=O)Nc1cccc2ccc(C)nc12 was tested. Which survival did it give?
Answer: inactive: 73%

Question: For CCc1nc2nc(C)cc(Nc3cc(Cl)ccc3C)n2n1, which survival is on record?
Answer: inactive: 65%

Question: For CCc1ccc(CNC(=O)c2ccc3c(Cl)c4c(nc3c2)CCCC4)cc1, which survival is on record?
Answer: inactive: 51%

Question: For COc1ccccc1CNC(=O)c1cccc(N2CCCS2(=O)=O)c1, which survival is on record?
Answer: inactive: 75%

Question: Which survival does the source give for Cc1ccc(N(CC(=O)NCCc2ccccc2C)S(=O)(=O)N(C)C)cc1 here?
Answer: inactive: 75%

Question: For COc1ccccc1CNC(=O)Cn1c(=O)oc2cc(S(=O)(=O)N3CCCC3)ccc21, which survival is on record?
Answer: inactive: 119%

Question: Which survival does the source give for CCOC(=O)c1ccc(NC(=O)C2CC(=O)NC(=Nc3ccc(C)c(C)c3)S2)cc1 (stereo unspecified) here?
Answer: active: 47%

Question: With Cc1cccc(NC(=O)Nc2ccc(F)cc2)n1 as the compound, how does the survival read?
Answer: inactive: 119%

Question: How did the survival turn out when CCCCN(C)CCNC(=O)c1ccc(Cn2c(=O)[nH]c3cc(OC)c(OC)cc3c2=O)cc1 was run?
Answer: inactive: 83%

Question: CCOC(=O)c1cnn(-c2ccc(C(=O)Nc3ccc(OC(F)(F)F)cc3)cc2)c1N was tested. Which survival did it give?
Answer: inactive: 124%

Question: Which survival does the source give for Cc1cc(N2CCN(c3cccc(C)c3C)CC2)n2cnnc2n1 here?
Answer: inactive: 99%

Question: Which survival does the source give for O=C(CCCCCN1C(=O)c2ccccc2C1=O)Nc1nccs1 here?
Answer: inactive: 101%

Question: CC(=O)Nc1ccc(NC(=O)C2CCCN(S(=O)(=O)c3ccc4c(c3)CCCC(=O)N4)C2)cc1 (stereo unspecified) was tested. Which survival did it give?
Answer: inactive: 84%

Question: How did the survival turn out when COc1ccccc1CNC(=O)Cn1c(=O)nc(-c2ccccc2)c2ccccc21 was run?
Answer: inactive: 94%

Question: COC(=O)c1ccc(NC(=O)CN(Cc2ccccc2)S(=O)(=O)c2ccc(Cl)cc2)cc1 was tested. Which survival did it give?
Answer: active: 40%

Question: With CCCSc1nnc2c(n1)OC(c1cccs1)Nc1ccc(Br)cc1-2 (stereo unspecified) as the compound, how does the survival read?
Answer: active: 30%

Question: For Cc1c(Cl)cccc1NC(=O)Nc1ccc2snnc2c1, which survival is on record?
Answer: active: -4%

Question: How did the survival turn out when CCn1nc(C)c(NC(=O)CCSc2nc(-c3ccco3)cc(C(F)(F)F)n2)c1C was run?
Answer: inactive: 56%

Question: How did the survival turn out when Oc1c(C(c2ccccc2F)N2CCCC2)sc2nc(-c3ccco3)nn12 (stereo unspecified) was run?
Answer: inactive: 81%

Question: Which survival does the source give for O=C(NCCc1ccccc1)c1ccc(CS(=O)(=O)c2ccc(Cl)cc2)o1 here?
Answer: inactive: 94%

Question: COc1cccc(C(=O)n2nc(-c3cccnc3)nc2NCc2ccc(F)cc2)c1 was tested. Which survival did it give?
Answer: inactive: 71%

Question: How did the survival turn out when CCN(CC)CCSc1nnc2c3cc(F)ccc3n(CC)c2n1 was run?
Answer: inactive: 171%

Question: For O=C(NCc1ccccc1Cl)c1nnc(Cc2ccc(Cl)cc2)o1, which survival is on record?
Answer: inactive: 93%

Question: How did the survival turn out when COc1ccc(-c2noc(CSc3nnc(C)n3-c3ccc(C)c(C)c3)n2)c(OC)c1 was run?
Answer: inactive: 60%

Question: With COc1ccc(-c2nc(SCC(=O)NCCc3ccccc3)n[nH]2)cc1 as the compound, how does the survival read?
Answer: inactive: 88%

Question: Cc1ccc2onc(CC(=O)N3CCN(c4ccccc4)CC3)c2c1 was tested. Which survival did it give?
Answer: active: 40%

Question: How did the survival turn out when CCOc1ccc(NC(=O)C(C)n2c(=O)cc(C)c3c(C)nn(-c4ccccc4)c32)cc1 (stereo unspecified) was run?
Answer: inactive: 83%

Question: How did the survival turn out when CCc1ccc(OCC(=O)Nc2ccc3c(c2)c2ccccc2n3CC)c(Br)c1 was run?
Answer: active: 6%

Question: N#C/C(=C\c1cc(Br)c(O)c(Br)c1)c1nc2ccccc2c(=O)[nH]1 was tested. Which survival did it give?
Answer: inactive: 90%

Question: Which survival does the source give for CN(C)c1ccc(-c2nc3ccccn3c2NC2CCCC2)cc1 here?
Answer: inactive: 83%

Question: For CCCC1=Nc2cc(C(=O)NCCOC)ccc2Sc2ccccc21, which survival is on record?
Answer: inactive: 113%

Question: For CCCOc1ccccc1C1C(C(=O)Nc2ccccc2)=C(C)Nc2nnnn21 (stereo unspecified), which survival is on record?
Answer: inactive: 140%

Question: CCc1ccc(N(CC)C(=O)Cn2cnc3sc(C)c(S(=O)(=O)N4CCN(c5ncccn5)CC4)c3c2=O)cc1 was tested. Which survival did it give?
Answer: inactive: 71%

Question: Which survival does the source give for Cc1cccc(S(=O)(=O)c2cn(C)c3cc(N4CCC(C)CC4)c(F)cc3c2=O)c1 here?
Answer: inactive: 91%

Question: With Cc1[nH]c(=O)[nH]c(=O)c1CSCC(=O)O as the compound, how does the survival read?
Answer: inactive: 89%

Question: How did the survival turn out when CCC(=O)N1c2ccc(S(=O)(=O)CCC(=O)NCc3cccc(OC)c3)cc2CC1C (stereo unspecified) was run?
Answer: inactive: 102%

Question: Which survival does the source give for Cc1cccc2sc(N(Cc3cccnc3)C(=O)C3COc4ccccc4O3)nc12 (stereo unspecified) here?
Answer: inactive: 67%

Question: With COc1ccc(-c2nc(Cn3c(SCc4ccccc4F)nc4cccnc43)c(C)o2)cc1 as the compound, how does the survival read?
Answer: inactive: 69%

Question: How did the survival turn out when Cc1ccc(CNC(=O)CN2C(=O)C3(SCC(=O)N3c3ccc(F)c(F)c3)c3ccccc32)cc1 (stereo unspecified) was run?
Answer: inactive: 75%

Question: With CCOC(=O)C(Cc1ccccc1)NC(=O)CCc1c(C)nc2c(c(C)nn2-c2ccc(C)c(C)c2)c1C (stereo unspecified) as the compound, how does the survival read?
Answer: inactive: 66%

Question: COC(=O)c1ccccc1NC(=O)C1CCCN(c2nnc(C)c3c(C)n(-c4ccccc4)nc23)C1 (stereo unspecified) was tested. Which survival did it give?
Answer: inactive: 79%

Question: For COC(=O)c1c(NC(=O)c2ccc(S(=O)(=O)N(C)C3CCCCC3)cc2)sc2c1CCN(C)C2, which survival is on record?
Answer: inactive: 99%

Question: COc1ccc(OC)c(NC(=O)C2C3C=CC(C3)C2C(=O)NCc2cccnc2)c1 (stereo unspecified) was tested. Which survival did it give?
Answer: inactive: 106%
